Here are results for 44 molecules from paper PMC11995724, “Antibiotic target discovery by integrated phenotypic and activity-based profiling of electrophilic fragments” (Cell chemical biology, 2025).

The campaign covered roughly 3,200 compounds. About 75 (2%) showed an effect of 50% or more. Some of the results follow.

The assay has as its system T1, S. aureus MSSA476.
T1 construct: MSSA476
Also on record: species or system S. aureus MSSA476 (TSB) or V. cholerae SAD30 (LB); 384-well bacterial growth screen at 25 uM, OD600 relative to DMSO control. As to conditions: relative growth, OD600, TSB; 25 µM; inhibitor.
Turning to `O=C(CCl)NCC1(c2ccccc2)CCC1` [4-O19, 2-chloro-N-[(1-phenylcyclobutyl)methyl]acetamide], the “% of control remaining” value stood at 89.9476%. The result for `C=CC(=O)NCc1cn(C)nc1-c1ccccn1` [2-H03, N-{[1-methyl-3-(pyridin-2-yl)-1H-pyrazol-4-yl]methyl}prop-2-enamide] reads 107.92%; that for `O=C(CCl)N(CC1CCCO1)C1CCS(=O)(=O)C1` (centres unmarked) [5-N16, 2-chloro-N-(1,1-dioxo-1lambda6-thiolan-3-yl)-N-[(oxolan-2-yl)methyl]acetamide], 91.0747%. The result for `COCCNC(=O)C(C#N)=Cc1cccc(O)c1` [9-H08, 2-cyano-3-(3-hydroxyphenyl)-N-(2-methoxyethyl)prop-2-enamide] reads 102.472%. For `C=CC(=O)N1CCC(C(=O)NCCC2(O)CCCOC2)CC1` (centres unmarked) [2-B04, N-[2-(3-hydroxyoxan-3-yl)ethyl]-1-(prop-2-enoyl)piperidine-4-carboxamide], the “% of control remaining” value was 110.009%.

With `O=C(CCl)c1ccc(CC(=O)N2CCOCC2)s1` [10-H06, 2-chloro-1-{5-[2-(morpholin-4-yl)-2-oxoethyl]thiophen-2-yl}ethan-1-one], the “% of control remaining” value was determined as 118.75%. With `CC1CCc2c(sc(NC(=O)CCl)c2C(=O)OC(C)C)C1` (centres unmarked) [4-D07, propan-2-yl 2-(2-chloroacetamido)-6-methyl-4,5,6,7-tetrahydro-1-benzothiophene-3-carboxylate], the “% of control remaining” value is listed as 128.061%.

On to `Cc1c(C=C(C#N)C(=O)Nc2nccs2)cc(C#N)n1C` [8-B18, 2-cyano-3-(5-cyano-1,2-dimethyl-1H-pyrrol-3-yl)-N-(1,3-thiazol-2-yl)prop-2-enamide], for which the “% of control remaining” value amounted to 86.971%.

`O=C(CCl)N1CCC1c1cccc(F)c1` (centres unmarked) [5-K10, 2-chloro-1-[2-(3-fluorophenyl)azetidin-1-yl]ethan-1-one]: the “% of control remaining” value is given as 105.647%. As to `C=CC(=O)NCCC(=O)N1CCc2cc(C)c([N+](=O)[O-])cc21` [3-F08, N-[3-(5-methyl-6-nitro-2,3-dihydro-1H-indol-1-yl)-3-oxopropyl]prop-2-enamide], the “% of control remaining” value is on record as 91.2495%. For `CC(Cl)C(=O)N(Cc1ccccc1)Cc1ccccc1` (centres unmarked) [5-K19, N,N-dibenzyl-2-chloropropanamide], the “% of control remaining” value was 103.097%. As to `O=C(CCl)N1c2ccc(F)cc2NC(=O)C12CCC2` [5-K09, 1'-(2-chloroacetyl)-6'-fluoro-3',4'-dihydro-1'H-spiro[cyclobutane-1,2'-quinoxalin]-3'-one], the “% of control remaining” value turned out to be 107.468%. The result for `O=C(CCl)NCc1ccccc1C(F)(F)F` [6-K10, 2-chloro-N-{[2-(trifluoromethyl)phenyl]methyl}acetamide] reads 112.341%; that for `COC(=O)c1c(-c2ccccc2Cl)csc1NC(=O)CCl` [4-F07, methyl 2-(2-chloroacetamido)-4-(2-chlorophenyl)thiophene-3-carboxylate], 109.767%.

`C=CC(=O)NCCc1ccn(-c2ccc(F)cc2)n1` [2-P03, N-{2-[1-(4-fluorophenyl)-1H-pyrazol-3-yl]ethyl}prop-2-enamide]: the “% of control remaining” value was 95.3873%.

Take `C=CC(=O)Nc1ccc(C(=O)N2CCC(C)(C)S(=O)(=O)CC2)cc1` [3-E04, N-[4-(7,7-dimethyl-1,1-dioxo-1lambda6,4-thiazepane-4-carbonyl)phenyl]prop-2-enamide]: the “% of control remaining” value came out at 106.226%. On to `CSc1cc(C(=O)CCl)ccc1NC(C)=O` [10-H08, N-[4-(2-chloroacetyl)-2-(methylsulfanyl)phenyl]acetamide], for which the “% of control remaining” value came out at 79.6875%. The result for `C=CC(=O)Nc1ccc(C(=O)NC2CCN(S(C)(=O)=O)CC2)cc1` [2-M21, N-(1-methanesulfonylpiperidin-4-yl)-4-(prop-2-enamido)benzamide] reads 120.801%.

As for `C=CC(=O)N1CCC(C(=O)NCc2nnc(C(C)C)n2C)CC1` [3-C16, N-{[4-methyl-5-(propan-2-yl)-4H-1,2,4-triazol-3-yl]methyl}-1-(prop-2-enoyl)piperidine-4-carboxamide], the “% of control remaining” value was 77.6665%. `N#CC(=Cc1ccc(Cl)cc1)C(=O)Nc1nccs1` [8-C11, 3-(4-chlorophenyl)-2-cyano-N-(1,3-thiazol-2-yl)prop-2-enamide]: the “% of control remaining” value is reported as 98.5892%.

Regarding `CC1CC1c1ccc(C=C(C#N)C(=O)Nc2ccc(C(=O)O)cc2)o1` (centres unmarked) [9-G16, 4-{2-cyano-3-[5-(2-methylcyclopropyl)furan-2-yl]prop-2-enamido}benzoic acid], the “% of control remaining” value is given as 68.3146%.

As to `Cc1cc(C)cc(-c2cc(NC(=O)CCl)n(-c3ccccc3)n2)c1` [4-K04, 2-chloro-N-[3-(3,5-dimethylphenyl)-1-phenyl-1H-pyrazol-5-yl]acetamide], the “% of control remaining” value turned out to be 80.4192%. With `CC(Cl)C(=O)N1CCN(S(=O)(=O)c2ccccc2)CC1` (centres unmarked) [6-B12, 1-[4-(benzenesulfonyl)piperazin-1-yl]-2-chloropropan-1-one], the “% of control remaining” value is 105.512%. The same measure for `O=C(CCl)N(CCCO)C1CCCc2ccccc21` (centres unmarked) [7-J14, 2-chloro-N-(3-hydroxypropyl)-N-(1,2,3,4-tetrahydronaphthalen-1-yl)acetamide]: 102.355%; for `COc1ccc(C2=NN(C(=O)CCl)C(c3cccc(F)c3)C2)cc1` (centres unmarked) [6-P04, 2-chloro-1-[5-(3-fluorophenyl)-3-(4-methoxyphenyl)-4,5-dihydro-1H-pyrazol-1-yl]ethan-1-one]: 145.463%. The result for `C=CCNC(=O)C(C#N)=Cc1cccc(C(F)(F)F)c1` [8-L09, 2-cyano-N-(prop-2-en-1-yl)-3-[3-(trifluoromethyl)phenyl]prop-2-enamide] reads 104.232%; that for `Cc1cc(C)n(CC2CCN(C(=O)C(C)Cl)CC2)n1` (centres unmarked) [7-P17, 2-chloro-1-{4-[(3,5-dimethyl-1H-pyrazol-1-yl)methyl]piperidin-1-yl}propan-1-one], 106.75%. `CCN(Cc1ccccc1)C(=O)CCl` [6-O21, N-benzyl-2-chloro-N-ethylacetamide]: the “% of control remaining” value was determined as 79.9024%. The result for `C=CC(=O)N(C)CC(=O)N1CCCCC1c1nc(C)c(C)s1` (centres unmarked) [2-E20, N-{2-[2-(4,5-dimethyl-1,3-thiazol-2-yl)piperidin-1-yl]-2-oxoethyl}-N-methylprop-2-enamide] reads 89.8172%; that for `COc1ccc(C=C(C#N)C(=O)NCc2ccccc2)cc1` [8-K19, N-benzyl-2-cyano-3-(4-methoxyphenyl)prop-2-enamide], 119.834%.

Turning to `Cc1cc(S(=O)(=O)N(C)C)cc(NC(=O)CCl)c1C` [4-H15, 2-chloro-N-[5-(dimethylsulfamoyl)-2,3-dimethylphenyl]acetamide], the “% of control remaining” value is reported as 77.7513%. Turning to `CC(Cl)C(=O)Nc1ccc(Cl)cc1F` (centres unmarked) [4-C14, 2-chloro-N-(4-chloro-2-fluorophenyl)propanamide], the “% of control remaining” value came to 121.582%. The result for `C=CC(=O)N1CCC(C(=O)OCC)(S(C)(=O)=O)CC1` [3-H04, ethyl 4-methanesulfonyl-1-(prop-2-enoyl)piperidine-4-carboxylate] reads 95.4288%; that for `C=CC(=O)NC(Cn1cncn1)c1ccccc1` (centres unmarked) [3-F17, N-[1-phenyl-2-(1H-1,2,4-triazol-1-yl)ethyl]prop-2-enamide], 118.415%. As for `C=CC(=O)NCC(O)c1ncccc1OC` (centres unmarked) [2-J11, N-[2-hydroxy-2-(3-methoxypyridin-2-yl)ethyl]prop-2-enamide], the “% of control remaining” value amounted to 89.4691%. Turning to `C=CC(=O)N1CCC(NC(=O)Nc2ccccc2OC)CC1` [1-K13, 3-(2-methoxyphenyl)-1-[1-(prop-2-enoyl)piperidin-4-yl]urea], the “% of control remaining” value is recorded as 120.615%. The same measure for `CC(=O)NC1Cc2ccccc2N(C(=O)CCl)C1` (centres unmarked) [5-M20, N-[1-(2-chloroacetyl)-1,2,3,4-tetrahydroquinolin-3-yl]acetamide]: 102.732%.

`COc1ccc(C(=O)C(C)Cl)cc1` (centres unmarked) [10-H22, 2-chloro-1-(4-methoxyphenyl)propan-1-one]: the “% of control remaining” value turned out to be 105.938%. The result for `COc1ccc(C=C(C#N)C(=O)Nc2ccc(Cl)c(Cl)c2)cc1` [8-C03, 2-cyano-N-(3,4-dichlorophenyl)-3-(4-methoxyphenyl)prop-2-enamide] reads 94.2739%; that for `C=CC(=O)N[C@H]1C[C@H](S(C)(=O)=O)C1` [3-D18, N-[(1r,3r)-3-methanesulfonylcyclobutyl]prop-2-enamide], 110.405%; that for `CS(=O)(=O)N1CCC(N(CC(F)F)C(=O)CCl)CC1` [5-O12, 2-chloro-N-(2,2-difluoroethyl)-N-(1-methanesulfonylpiperidin-4-yl)acetamide], 89.9818%. The result for `C=CC(=O)N(C)Cc1ccnn1CC` [1-F07, N-[(1-ethyl-1H-pyrazol-5-yl)methyl]-N-methylprop-2-enamide] reads 110.418%; that for `C=CC(=O)NCc1ccnc(N2CCN(c3ccc(F)cc3)CC2)c1` [1-M11, N-({2-[4-(4-fluorophenyl)piperazin-1-yl]pyridin-4-yl}methyl)prop-2-enamide], 84.7473%; that for `N#CC(=Cc1ccc(-c2ccc(Cl)cc2)o1)C(=O)NC1CC1` [9-K16, 3-[5-(4-chlorophenyl)furan-2-yl]-2-cyano-N-cyclopropylprop-2-enamide], 86.8914%.
